# Measurements: publication PMC12136788
# Where a chain is given by its changes, count along the chain named. The list shows a part of the results.
# T1: UNK ZnF1-3 (human, UniProt Q9C0B0 31-174)
# T1 sequence: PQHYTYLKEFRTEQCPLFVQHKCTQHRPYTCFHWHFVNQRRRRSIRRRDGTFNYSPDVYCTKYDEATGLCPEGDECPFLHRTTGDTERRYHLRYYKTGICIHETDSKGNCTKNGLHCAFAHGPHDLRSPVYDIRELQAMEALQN
# B1: chr16:42174308:42174309:+_ENSMUSG00000061080_ENSMUST00000099761|mus_mus|motif|central (ssRNA)
# RNA: GGGAGUUCUACAGUCCGACGAUCGUAUCUGUGUGACGCAUUUUUGUGUGUUUUUGUAAUUAUUUUUAAAUUUUUAUUCGGUUAACAUUUGCUGAGAAGGCAGAACAGGGACGCUGCCAGCAGCCACAGUGGUACGGCCAGACUCAACAGAGGAUUGAGCAUCA
# B2: chr2:179515052:179515053:+_ENSMUSG00000000305_ENSMUST00000000314|mus_hu|mus_mus_mus_hu_False|28_28 (ssRNA)
# RNA: GGGAGUUCUACAGUCCGACGAUCGCUGUCCCAUGCAGUCACCGUGAACGCCACCUGCUCGGAGGGGACCUGCAGCUCCCGGGUGGCGAAGACUGUCCCAUCUGCCCCGACUUUGAAGUCCAUGCUGUUGGUCUCAUAUUGUGUCAACAGAGGAUUGAGCAUCA
# B3: chr8:74858975:74858976:-_ENSG00000154582_ENST00000284811|hu_mus|hu_hu_hu_mus_True|1_88 (ssRNA)
# RNA: GGGAGUUCUACAGUCCGACGAUCGACCUUGUAGGUAAAAUACAUGCAUACUUUCGAUAGCACAUGUGAGGGGAUCUCUCUAAAAUUGACCUCGUUGGUUUCAUUCUCAGCAAACUGACCUGGACCACUCAACAUAGCUUUUAUCAACAGAGGAUUGAGCAUCA
# B4: 110765429_110765549_871_CDS_ENSG00000174437_ENST00000539276|human|control|control (ssRNA)
# RNA: GGGAGUUCUACAGUCCGACGAUCUAUGAUCCAGACUGCAAUGCAAAUAAGGGAGAUGACUUUGGAAAGCUGUUCCCCAAAUUCAUCUAGUUUUUGCUGAAGGGGUGUUCUCUCCUGUUCUGUUGCCACCAUUUCAUCCCGGAUCAACAGAGGAUUGAGCAUCA
# B5: chr1:46159212:46159213:+_ENSG00000159596_ENST00000372025|hu_mus|hu_hu_hu_mus_True|58_98 (ssRNA)
# RNA: GGGAGUUCUACAGUCCGACGAUCUCUGAUCCCUCCCAAGAAAGAUAGGAAACCGGCUCCAUAAGCCAUCUGAGUGAAAGCUAAUAUGGGGAUAUAAGACUUUGUUAUUACCAUGAGAAGUGGGGGAGCAGUAAAGGGGAUUAACAACAGAGGAUUGAGCAUCA
# B6: chr5:113341905:113341906:-_ENSMUSG00000042249_ENSMUST00000065167|mus_mus|FALSE|FALSE (ssRNA)
# RNA: GGGAGUUCUACAGUCCGACGAUCAUGGGAACUCUCAAACAGCCAUGUAUCAUAAACCCAUCUGGCUCCUCCUCCCACCCUAUGGAUCCAGGACACACCCUAGCCACAUGCCAGGGUGGAAAGAUGGCCUUUGAGAUGGCGCUACAACAGAGGAUUGAGCAUCA
# B7: chr4:17845017:17845018:+_ENSG00000109805_ENST00000514176|hu_mus|hu_hu_hu_mus_False|38_58 (ssRNA)
# RNA: GGGAGUUCUACAGUCCGACGAUCGCUCUCUUAACUUGUAUCUUCAUUAAGGAACUCUGCAAGGUUAAGUUUACUUUUUCUAGUGCUAGCUGUUUUGCUCGUCUUGGGUAAUCUCAUCUUCAUUUCUGAUGGUGGUUCAUGAUCCAACAGAGGAUUGAGCAUCA
# B8: 53432583_53432801_1820_CDS_ENSG00000072501_ENST00000322213|human|control|control (ssRNA)
# RNA: GGGAGUUCUACAGUCCGACGAUCUUUCUCAUCUGUAGGCUUCACCUCCAGGUAGUCAAGAGGCAAGAAGGUCUCAGGCUCCCCACGCUGCUCCUUGAUAUACUGAAUACAGUCCCGGCCUGUCUUCUCCGAGUCCACAAUAAUCAACAGAGGAUUGAGCAUCA
# B9: chr11:87793471:87793472:-_ENSMUSG00000020483_ENSMUST00000020775|mus_mus|mus_mus_mus_hu_False|18_28 (ssRNA)
# RNA: GGGAGUUCUACAGUCCGACGAUCUGGACUUGAAAAUAAAAGAAUAAGCUGGAUCCCCCACCCCCCCACAUUGUCAACCCUACACGAGAGUUUUGAAGGCGACUCAUGAAUCAGCAGCUCAAUUGGCGCAAUGACCACCCCACCCAACAGAGGAUUGAGCAUCA
# B10: chr18:48447474:48447475:+_ENSG00000082212_ENST00000321341|hu_hu|FALSE|FALSE (ssRNA)
# RNA: GGGAGUUCUACAGUCCGACGAUCCCAGAUUUUCUUUUGUGCCUCUUGUUCUGACAGGCCAUUUUCUACCAUAGACAUAACUAUAAGAUUUGCAAUUCCAAGAGCAGCCUCUCCUGCUCCAAGGAAUAAGAUUUUGUGUUCGGACAACAGAGGAUUGAGCAUCA
# B11: 32373031_32373151_2283_3pUTR_ENSG00000184007_ENST00000602725|human|control|control (ssRNA)
# RNA: GGGAGUUCUACAGUCCGACGAUCAAAAUGCUACUACACCGCUUCACAAGCAACACAGUCCCUUCACUACUCAUUGGGUUGCACGAUGUCUCUCUUCUACCCUGUUAUGGCCUGUGGACACAUACUCACUAGGCAUCAUUGUUGCAACAGAGGAUUGAGCAUCA
# B12: chr1:220276048:220276049:+_ENSG00000067704_ENST00000302637|hu_hu|hu_hu_hu_mus_True|18_108 (ssRNA)
# RNA: GGGAGUUCUACAGUCCGACGAUCGCAAACAGCUUCAUUGGCGGGAAUUGUCCAAGGCUGGGUGGUCCAAACUAAAACGCUAACAGGGGAUGAGGCAUCUGUAAGAGACUCCAACUUUGGAGAAGGCCUCAGGAGGGGGAAUCUCAACAGAGGAUUGAGCAUCA
# B13: 10679844_10679964_1776_3pUTR_ENSG00000112977_ENST00000230895|human|control|control (ssRNA)
# RNA: GGGAGUUCUACAGUCCGACGAUCGGGAGGAGGGGCGCUGGGUCUGACCAGGUCUGCCUCUGCCCUCACCAGCUGGCAGACGUGAACUGGAGAACAGCACCAGAAAGGCUGGUGGUUGGCAGCUGCUCACGACACAGUUGCUGACAACAGAGGAUUGAGCAUCA
# B14: 45394732_45394852_793_3pUTR_ENSMUSG00000022661_ENSMUST00000163230|mouse|control|control (ssRNA)
# RNA: GGGAGUUCUACAGUCCGACGAUCUCACAUUCCCCAGGUAUAAAACCUGGCAGAUCACUUCCUUCCCAACUUGAGUUUUGGGGUCUUUGACCCGGAGGAUGCUGGUGACAGAUGUAGUCCCAUUUGAAUGGAAGUGACUCUCGGCAACAGAGGAUUGAGCAUCA
# B15: chr9:95013113:95013114:-_ENSG00000196305_ENST00000443024|hu_hu|hu_hu_hu_mus_False|28_28 (ssRNA)
# RNA: GGGAGUUCUACAGUCCGACGAUCCUCAGUCAGAAAGGGCGUGUAAGGGGCCAUCAGUCUGCACAGAGAAAGCAGGACACUGAACAGUGUCUCCAGAGCCAUGACACAAUCCUCCAUCCCACUCUCACCCUUUAACCUCCUCCUCAACAGAGGAUUGAGCAUCA
# B16: chr10:71921676:71921677:-_ENSG00000079332_ENST00000373241|hu_mus|FALSE|FALSE (ssRNA)
# RNA: GGGAGUUCUACAGUCCGACGAUCCACACUGCUGAAGCCAUUGUAGAUCCACUCAAAGAUGAAAGACAUUAUUGAUGCUUACAACGGCCCGAGGGGCUCCUCCGGCGGUGGCUGGCGGCGCGACCCUCCCUCAGAGCACACAGACAACAGAGGAUUGAGCAUCA
# B17: chr1:163138135:163138136:-_ENSG00000143248_ENST00000313961|hu_mus|FALSE|FALSE (ssRNA)
# RNA: GGGAGUUCUACAGUCCGACGAUCAUUGUAUGGAAUGACAAGGUCAACAGCAGAGUCUGGCUUCUGGAGGAGAAUUCCCAACUUGAUCUUGAUCUCCUUGGCCCUUUCCAGGCAUGAGUGCGGCAGAGCUGCCAGUCCCUUACACAACAGAGGAUUGAGCAUCA
# B18: chr1:220276048:220276049:+_ENSG00000067704_ENST00000302637|hu_hu|hu_hu_hu_mus_True|88_108 (ssRNA)
# RNA: B12 RNA with U48C, U117C, A122G, C126U
# B19: 151261908_151262165_2732_CDS_ENSG00000143373_ENST00000336715|human|control|control (ssRNA)
# RNA: GGGAGUUCUACAGUCCGACGAUCCUGAUGGGUGUUCUUGAGAUGUUCCAGCAUGGUCCUUUUUUGGGCAAAGAGCAGAGGACAAGACGGGCACUUAAAGACACUGACACGCUGGGGCAGCAAGUGCUGGUCGAAGUGUGAGGACAACAGAGGAUUGAGCAUCA
# B20: chr13:29242638:29242639:+_ENSG00000132963_ENST00000380842|hu_mus|FALSE|FALSE (ssRNA)
# RNA: GGGAGUUCUACAGUCCGACGAUCGAAUUCCAUCUGUAACUUCAGGGGAGCAAACAGACCCUGGAUGUUCCUCAGCGUGGAAAAGUUCAUCUUGUCCUGGUUGAGCUGGAAGUUUUUUUCUGAUAACUCGAGAGGGUGACUGGGCAACAGAGGAUUGAGCAUCA
# B21: chr11:23194044:23194045:+_ENSMUSG00000020290_ENSMUST00000020538|mus_hu|FALSE|FALSE (ssRNA)
# RNA: GGGAGUUCUACAGUCCGACGAUCCUGAAGAAAGAUUUGGUUGUUAACUGGAUUUCCAGGAUUUAAUGAUGUACUUAUUUUUCCUUCUUCAACCAAAUUAAACAUAUAUGCAAGAAUUGAUGCAUGCAUUGUUAAACCAGCAGUCAACAGAGGAUUGAGCAUCA
# B22: 4763567_4763687_2468_3pUTR_ENSG00000101265_ENST00000379400|human|control|control (ssRNA)
# RNA: GGGAGUUCUACAGUCCGACGAUCCACUGAUGCCCAGCUGCCUGUCAAGCUUCCUGAUAGGAGUCCCAGGGCACAGACUGUUCUUGCCCUUUUCUCCCAUUGGGGUUGGAUUUAAAGAUCACAUAGGUGGCUGCUCAGAGGAGCCAACAGAGGAUUGAGCAUCA
# Molecular target: T1, UNK ZnF1-3
# Assay: nsRBNS (natural sequence RNA bind-n-seq); RBNS binding buffer (assumed for nsRBNS): 25 mM Tris pH 7.5, 150 mM KCl, 3 mM MgCl2, 0.01% Triton X-100, 500 ug/ml BSA, 20 U/ml SUPERase-In, 4 C; UNK is unkempt and MSI1 is Musashi-1; names of the RNAs are library labels; protein concentration not given here; high values mean tight binding
row,Binder,binding signal [enrichment R]
1,B1,2.94
2,B2,0.719
3,B3,0.856
4,B4,0.676
5,B5,1.55
6,B6,0.229
7,B7,0.298
8,B8,1.1
9,B9,1.46
10,B10,0.636
11,B11,0.984
12,B12,2.1
13,B13,0.852
14,B14,0.891
15,B15,1.26
16,B16,0.65
17,B17,1.23
18,B18,1.88
19,B19,1.39
20,B20,1.42
21,B21,0.918
22,B22,1.05
